Measurements reported in PubChem BioAssay AID686971 (National Center for Advancing Translational Sciences (NCATS), 2013).
Among all 360,000 compounds or so, about 7,500 (2.1%) were called active. The shares of active, inactive and inconclusive entries below differ from those in the screen. Calls follow the shape of the dose curve; as a rule, active = well fitted cell-killing curve with a large enough effect; inconclusive = small, poorly fitted or top-dose-only effect, or effect the other way, or another doubt; inactive = no such curve, though single readings can be large or run the other way. No potency is given beside an inconclusive call; the fits are too rough.

Assay: qHTS for induction of synthetic lethality in tumor cells producing 2HG: qHTS for the HT-1080-IDH1KD cell line;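 as to activity, negative = toxicity: 0% = DMSO wells and -100% = cell-free medium wells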
Details: HT-1080 IDH1 knockdown viability, ATP luminescence, 48 h; activity, negative = toxicity: at 46.1 µM (top of the series) unless noted
In short: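 HT-1080-IDH1KD cells (IDH1 knocked down), 750/well in RPMI with 5% FBS, treated with compound 48 h at 37 degrees C. Viability by CellTiter-Glo luminescence, normalised to DMSO and no-cell wells; concentration-response curves classed.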
Potency is read from the fitted curve at half-maximal effect; tags tell the direction and shape of the fitted curve.

SMILES | Potency | activity, negative = toxicity
Clc1ccc(CCC(Cn2ccnc2)Sc2c(Cl)cccc2Cl)cc1 (stereo unspecified) | inconclusive [cytotoxic, single point] | 
COC(/C(C)=C/C=C/C(C)=C/c1coc(C)n1)C(C)C1CC(O)C2(C)OC2C=CC(C)C2CC(CC(=O)O2)CC2OC2C(=O)O1 (stereo unspecified) | inconclusive [cytotoxic, full curve] | 
Oc1c(Cl)cc(Cl)cc1CN1CCN(Cc2ccccc2)CC1 |  | inactive: -0.575%
Nc1c2c(nc3sc4c(c13)CCCCC4)CCCC2 | inconclusive [cytotoxic, single point] | 
COC(=O)C1=C(C(=O)OC)C2OC1c1cc3ccccc3cc12 | active: 3.26 µM | 
O=C1NC(=O)N(c2ccccc2)C(=O)/C1=C/C=C/c1ccco1 | inconclusive [cytotoxic, single point] | 
CS(=O)(=O)N(CC(=O)N1CCN(Cc2ccc3c(c2)OCO3)CC1)Cc1ccc(Cl)cc1 | inconclusive [cytotoxic, single point] | 
COc1ccc2nc(-c3ccc(CN4CCC(n5c(=O)[nH]c6ccccc65)CC4)cc3)c(-c3ccccc3)nc2c1 | inconclusive [cytotoxic, partial curve] | 
CC/C(=N\Nc1ccccc1)c1c(O)n(-c2ccccc2)c(=O)[nH]c1=O | inconclusive [cytotoxic, full curve, poor fit] | 
CC(=O)Nc1ccc(C(=O)OCC(=O)Nc2ccc(Cl)cc2C(=O)c2ccccc2)cc1 |  | inactive: -5.37%
CCCCc1ccc2[nH]cc(CCN)c2c1 | inconclusive [cytotoxic, single point] | 
CCC(=NCCc1ccccc1)c1c(O)n(C)c(=O)n(C)c1=O | inconclusive [cytotoxic, single point] | 
COC(=O)C(O)(c1ccc(NC(=S)NC(=O)c2ccccc2)cc1)C(F)(F)F (stereo unspecified) |  | inactive: -29.3%
CCCCn1c(=O)c(C(=O)Nc2ccccc2S(N)(=O)=O)c(O)c2ccccc21 | inconclusive [cytotoxic, single point] | 
COc1ccc(-n2c(/C=C/c3ccc(O)c(OC)c3)nc3ccccc3c2=O)cc1 | inconclusive [cytotoxic, partial curve, poor fit] | 
Cc1ccc2c(c1)C1CN(C)CCC1N2C(=O)c1cn(-c2ccccc2)nc1-c1ccccc1 (stereo unspecified) | active: 20.6 µM | 
O=C(Nc1ccc(Cl)cc1)Nc1ccc(Cl)c(Cl)c1 | inconclusive [cytotoxic, single point] | 
C=CCn1c(O)c(C(C)=Nc2ccc(C(=O)OCC)cc2)c(=O)[nH]c1=O | inconclusive [cytotoxic, single point] | 
O=C(CN1CCN(c2ccccc2F)CC1)Nc1cccnc1Cl |  | inconclusive: -31.5% [cytotoxic]
CC(C)Nc1nc(NC(C)C)nc(N(C#N)CCOc2ccc(Cl)cc2Cl)n1 | inconclusive [cytotoxic, single point] | 
O=C1NC(=S)NC(=O)C1=Cc1cccn1-c1ccc(O)cc1 | active: 23.1 µM | 
COc1ccc(-c2ccc(OC)c(OC)c2OC)cc1 | inconclusive [cytotoxic, full curve] | 

SMILES | Potency | activity, negative = toxicity
Cc1nn(Cc2ccccc2Cl)c(C)c1C(=O)Nc1nnc(C2CC2)s1 | active: 2.51 µM | 
COC1=C(C)C(=O)C2=C(C1=O)C(CO)N1C(C#N)C3CC4C(C1C2N1CCOC41)N3C (stereo unspecified) | active: 0.651 µM | 
O=C(c1cc(C(=O)NCc2ccccc2)c(=O)n(Cc2ccccc2)c1)c1cc(Br)ccc1O | inconclusive [cytotoxic, single point] | 
O=c1[nH]c2ccccc2n1C1CCN(C(c2ccnc3ccccc23)c2nnnn2Cc2ccccc2)CC1 (stereo unspecified) | inconclusive [cytotoxic, single point] | 
CCCCn1c(=O)c(C(=O)NCc2ccncc2)c(O)c2ccccc21 | inconclusive [cytotoxic, partial curve] | 
COC(=O)C1=C(c2ccc(F)cc2OCc2ccccc2)C[C@@H]2CC[C@H]1N2C(=O)NCc1ccccc1Cl |  | inactive: -15.2%
Cc1nc2c(=O)n(C)c(=O)nc-2n(C)n1 | active: 1.3 µM | 
CCCN1CCc2cc(O)cc3c2[C@H]1Cc1ccc(O)c(O)c1-3 | active: 23.1 µM | 
CC(=O)OC1CC(OC2C(O)CC(OC3C(O)CC(OC4CCC5(C)C(CCC6C5CC(O)C5(C)C(C7=CC(=O)OC7)CCC65O)C4)OC3C)OC2C)OC(C)C1OC1OC(CO)C(O)C(O)C1O (stereo unspecified) | active: 0.206 µM | 
Cc1ccc2c(c1)C1CN(C)CCC1N2C(=O)c1ccccc1NS(=O)(=O)c1cccc(C(F)(F)F)c1 (stereo unspecified) | inconclusive [cytotoxic, single point] | 
CC(=O)OC12COC1CC(O)C1(C)C(=O)C(O)C3=C(C)C(O)CC(O)(C(OC(=O)c4ccccc4)C21)C3(C)C (stereo unspecified) | inconclusive [cytotoxic, full curve] | 
COc1ccc2[nH]c(C)c(CCNCc3cn(C)c4ccccc34)c2c1 | inconclusive [cytotoxic, partial curve] | 
C#CCOCCOCCOCCNc1nc(N2CCN(C(=O)CCCCCCCCCCNC(=O)[C@H]([C@@H](C)CC)n3cc(CCCCN=C(N)N)nn3)CC2)nc(N2CCN(C(=O)CCCCCCCCCCNC(=O)[C@H](CO)n3cc(CCCCCN)nn3)CC2)n1 | inconclusive [cytotoxic, single point] | 
Cc1ccc(CN2CC3CC(C2)c2cccc(=O)n2C3)cc1 (stereo unspecified) | inconclusive [cytotoxic, partial curve] | 
Cc1cc(Cc2c(O)[nH]c(=S)[nH]c2=O)ccc1OC(C)C |  | inactive: 10.4%
Oc1ccc2c3c1OC1c4[nH]c5ccccc5c4C[C@@]4(O)C(C2)N(CC2CC2)CC[C@]314 (stereo partly specified) | inconclusive [cytotoxic, partial curve] | 
Cc1cc(NC(=O)COC(=O)c2c(C)nn(Cc3ccccc3)c2Cl)no1 |  | inactive: -13.4%
CCCNS(=O)(=O)c1ccc(OCC(=O)N2CCN(Cc3ccc4c(c3)OCO4)CC2)c(C)c1 | inconclusive [cytotoxic, partial curve] | 
C[N+](C)(C)CC1CCCC(C[N+](C)(C)C)C1=O (stereo unspecified) | active: 3.66 µM | 
O=C(NCc1ccc(C(=O)N2CCC3(CC2)OCCO3)cc1)c1ccc2c(c1)OCO2 |  | inactive: 2.53%
CN(C)c1ccc(C=C2C(=O)NC(=S)NC2=O)cc1 | inconclusive [cytotoxic, single point] | 
COc1cc([N+](=O)[O-])c2nc(C)ccc2c1[N+](=O)[O-] | inconclusive [cytotoxic, single point] | 

SMILES | Potency | activity, negative = toxicity
Cc1c(C=C2C(=O)N(C)C(=S)N(C)C2=O)c2ccccc2n1CC(=O)NCC1CCCO1 (stereo unspecified) |  | inactive: -15.8%
COc1ccc(OC)c(CC(=O)N(C)C2CCCN(Cc3ccccc3F)C2)c1 (stereo unspecified) |  | inactive: 5.79%
NC(N)=N/N=C/c1ccc(N(c2ccccc2)c2ccccc2)cc1 | inconclusive [cytotoxic, single point] | 
COC(=O)C1=C(c2cc3ccccc3s2)C[C@@H]2CC[C@H]1N2C(=O)N1CCC(O)CC1 |  | inactive: -0.222%
COc1ccc(CNCCc2c[nH]c3ccccc23)c(OC)c1C | active: 25.9 µM | 
COc1ccc(-n2c(C)nc3cc(C(=O)N4CCC5(CC4)OCCO5)ccc32)cc1 | inconclusive [cytotoxic, single point] | 
C=C1C(=O)O[C@@H]2C[C@@H](C)[C@@H]3C=CC(=O)[C@@]3(C)[C@@H](OC(=O)CC(=O)O[C@H]3[C@@H]4C(=C)C(=O)O[C@@H]4C[C@@H](C)[C@@H]4C=CC(=O)[C@]43C)[C@H]12 | active: 0.231 µM | 
O=C1C(=O)c2ccccc2-c2ccccc21 | active: 1.16 µM | 
O=c1[nH]c(=O)n(CCC2=CCCCC2)c(O)c1/C=N/Nc1ccccc1 | inconclusive [cytotoxic, full curve] | 
CCCCCCn1c(=O)c(C(=O)Nc2cnccn2)c(O)c2ccccc21 | inconclusive [cytotoxic, partial curve] | 
Cn1nc(-c2ccc(OCC(=O)N3CCN(Cc4ccccc4)CC3)cc2)c2ccccc2c1=O | inactive | 
Cc1cccc(/C(N)=N/OC(=O)N2CCOCC2)c1 | active: 11.2 µM | 
Cc1ccc(-c2noc(=O)n2CC(=O)Nc2ccc(S(=O)(=O)NC3CC3)cc2)cc1 | inconclusive [cytotoxic, single point] | 
C=CCN1C(=O)NC(=O)/C(=C\c2ccc(-c3ccccc3[N+](=O)[O-])o2)C1=O | inconclusive [cytotoxic, single point] | 
CC(=O)Nc1ccc(OCCF)cc1 |  | inactive: 12%
CN1[C@@H]2CC[C@H]1CC(OC1c3ccccc3CCc3ccccc31)C2 (stereo partly specified) | active: 25.9 µM | 
S=C(NCCc1ccccc1)N1Cc2cc(-c3ccccc3)ccc2-n2nncc2C1 | inconclusive [cytotoxic, single point] | 
CCOC(=O)[C@]12Cc3c(cc(OC)c(OC)c3OC)[C@H]1N(C(C)C)C(=O)c1cc(OC)ccc12 | active: 18.4 µM | 
Cc1cc(C=C2C(=O)NC(=S)NC2=O)c(C)n1-c1ccc2c(c1)OCO2 | inconclusive [cytotoxic, single point] | 
COc1ccc2nc(NC(=O)CCc3nc(C4=CCN(C)CC4)no3)sc2c1 |  | inactive: 6.05%
Nc1ccc(C(=O)N/N=C2/CN3CCC2CC3)cc1 | inconclusive [cytotoxic, single point] | 
CCOC(=O)[C@]12Cc3cc(Cl)ccc3[C@H]1N(CC(=O)OC)C(=O)c1ccccc12 | active: 7.31 µM | 
